About 16,000 (4.4%) of roughly 360,000 compounds were called active. The inconclusive results got no clear call from the source; some entries with a clear call stand among them for comparison. Calls come from the whole dose curve; as a rule, active = well fitted inhibition curve with a large enough effect; inconclusive = small, poorly fitted or top-dose-only effect; inactive = no such curve, though single readings can be large or run the other way. Potencies beside an inconclusive call are fits to weak or partial responses and may not hold up.
target: Bromodomain adjacent to zinc finger domain protein 2B (Homo sapiens) (UniProt Q9UIF8); experiment: qHTS Assay for Inhibitors of BAZ2B; details: AlphaScreen BAZ2B-H3K14Ac peptide displacement; activity change, negative = inhibition: at 114 µM (top of the series) unless noted; note: nearly all actives have a fitted effect of over 60% in size
UniProt Q9UIF8, sequence (Q9UIF8 whole entry, looked up, the tested form may be a part): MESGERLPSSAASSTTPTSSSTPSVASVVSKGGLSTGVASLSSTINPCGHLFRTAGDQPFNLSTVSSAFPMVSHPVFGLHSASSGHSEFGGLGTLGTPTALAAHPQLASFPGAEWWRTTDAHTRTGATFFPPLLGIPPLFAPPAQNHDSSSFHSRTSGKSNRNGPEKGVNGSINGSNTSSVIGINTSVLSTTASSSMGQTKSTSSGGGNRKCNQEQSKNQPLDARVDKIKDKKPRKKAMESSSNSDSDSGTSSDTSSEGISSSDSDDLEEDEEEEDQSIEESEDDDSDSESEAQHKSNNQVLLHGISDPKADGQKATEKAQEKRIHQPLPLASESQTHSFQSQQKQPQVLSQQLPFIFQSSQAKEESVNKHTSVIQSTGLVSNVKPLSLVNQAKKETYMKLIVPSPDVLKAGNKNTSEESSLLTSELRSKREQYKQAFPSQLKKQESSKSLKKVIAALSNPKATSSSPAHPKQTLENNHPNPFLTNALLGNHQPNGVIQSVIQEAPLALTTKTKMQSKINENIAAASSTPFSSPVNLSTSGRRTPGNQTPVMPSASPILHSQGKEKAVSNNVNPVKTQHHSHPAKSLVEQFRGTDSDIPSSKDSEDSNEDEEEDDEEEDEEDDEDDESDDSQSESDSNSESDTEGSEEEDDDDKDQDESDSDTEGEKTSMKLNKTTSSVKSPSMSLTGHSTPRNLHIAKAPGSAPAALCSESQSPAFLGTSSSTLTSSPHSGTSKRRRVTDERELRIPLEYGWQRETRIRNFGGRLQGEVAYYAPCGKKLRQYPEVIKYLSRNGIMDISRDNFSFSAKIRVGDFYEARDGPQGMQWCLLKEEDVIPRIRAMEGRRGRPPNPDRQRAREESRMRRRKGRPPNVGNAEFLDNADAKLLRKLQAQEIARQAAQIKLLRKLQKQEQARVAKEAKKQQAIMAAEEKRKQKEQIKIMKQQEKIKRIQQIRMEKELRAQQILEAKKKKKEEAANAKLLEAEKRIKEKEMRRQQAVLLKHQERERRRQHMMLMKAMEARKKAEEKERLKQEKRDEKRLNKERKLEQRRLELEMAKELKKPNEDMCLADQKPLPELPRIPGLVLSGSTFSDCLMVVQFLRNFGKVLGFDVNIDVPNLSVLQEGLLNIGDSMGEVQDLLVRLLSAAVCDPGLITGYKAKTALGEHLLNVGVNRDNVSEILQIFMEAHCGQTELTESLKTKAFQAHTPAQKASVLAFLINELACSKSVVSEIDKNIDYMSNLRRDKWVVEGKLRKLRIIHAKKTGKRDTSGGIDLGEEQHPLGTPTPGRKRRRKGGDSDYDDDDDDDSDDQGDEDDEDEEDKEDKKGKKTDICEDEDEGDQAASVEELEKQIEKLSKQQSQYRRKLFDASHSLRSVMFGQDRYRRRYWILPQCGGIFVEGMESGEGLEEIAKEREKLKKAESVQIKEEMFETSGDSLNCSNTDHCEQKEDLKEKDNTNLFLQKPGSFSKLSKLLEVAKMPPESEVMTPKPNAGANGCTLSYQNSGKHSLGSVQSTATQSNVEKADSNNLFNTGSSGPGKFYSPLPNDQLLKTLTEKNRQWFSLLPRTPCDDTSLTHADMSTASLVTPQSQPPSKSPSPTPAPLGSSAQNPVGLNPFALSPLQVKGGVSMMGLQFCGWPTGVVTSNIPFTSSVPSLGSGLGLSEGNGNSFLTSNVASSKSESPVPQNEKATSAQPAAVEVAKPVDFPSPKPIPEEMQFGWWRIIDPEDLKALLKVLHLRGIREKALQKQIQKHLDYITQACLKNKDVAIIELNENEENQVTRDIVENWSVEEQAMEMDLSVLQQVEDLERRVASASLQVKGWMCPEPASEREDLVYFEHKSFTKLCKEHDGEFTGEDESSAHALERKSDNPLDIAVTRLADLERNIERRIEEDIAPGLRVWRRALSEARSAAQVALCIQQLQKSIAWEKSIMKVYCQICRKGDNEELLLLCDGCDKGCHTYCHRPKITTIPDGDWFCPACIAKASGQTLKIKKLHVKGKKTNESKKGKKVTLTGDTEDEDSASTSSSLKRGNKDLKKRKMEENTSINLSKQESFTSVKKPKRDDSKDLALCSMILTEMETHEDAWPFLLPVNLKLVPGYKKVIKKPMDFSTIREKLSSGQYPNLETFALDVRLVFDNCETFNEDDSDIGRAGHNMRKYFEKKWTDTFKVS
How it was run: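 In this displacement format the biotinylated H3(5-23) peptide acetylated at Lys14 serves as ligand at 50 nM, with BAZ2B at 50 nM in PBS pH 7.4 containing 0.01% Tween-20. Donor and acceptor beads are 10 ug/mL final.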
% is set by controls: 0 for no effect and ±100 for the full control effect; potency is the fitted concentration of half-maximal effect; tags give direction and shape of the fitted curve.

| SMILES | Potency | activity change, negative = inhibition |
| --- | --- | --- |
| C=CCN(c1ccc(C(=O)Nc2ccc3c(c2)n(C)c(=O)n3C)cc1)S(C)(=O)=O | inconclusive: 79.4 µM [inhibitor, single point] | – |
| Cn1c2c(c(=O)c3ccccc31)CCCC2 | – | inactive: 4.32% |
| O=[N+]([O-])c1ccc(OCCCCN2CCc3ccccc3C2)cc1 | active: 79.4 µM | – |
| Cc1c(O)nc(SCC(=O)Nc2ccc3c4c(cccc24)CC3)n(-c2ccccc2)c1=O | inconclusive: 79.4 µM [inhibitor, single point] | – |
| C=CCc1cccc([C@@H]2[C@@H](C)CC[C@H]3C(=O)N4[C@@H](c5cc(OC)c(OC)c(OC)c5)c5[nH]c6ccccc6c5C[C@H]4C(=O)N23)c1 | inconclusive: 79.4 µM [inhibitor, single point] | – |
| CC(=O)C1=C(C)NC2=C(C(=O)c3ccccc32)C1c1ccccc1 (stereo unspecified) | inconclusive: 39.8 µM [inhibitor, partial curve] | – |
| CCOc1ccc(NCc2cccn2-c2nnc(N3CCC(C(=O)NCCCN4C(C)CCCC4C)CC3)s2)cc1 (stereo unspecified) | active: 39.8 µM | – |
| Cc1ccc(NC(=O)c2sccc2-n2cccc2)c(C)c1 | inconclusive: 89.1 µM [inhibitor, single point] | – |
| COc1cccc(CNCc2cccn2-c2nnc(N3CCN(c4ccccc4)CC3)s2)c1 | inconclusive: 39.8 µM [inhibitor, single point] | – |
| CC(C(=O)N1c2ccccc2CCc2ccccc21)n1nnc(-c2ccc(N(C)C)cc2)n1 (stereo unspecified) | inconclusive: 22.4 µM [inhibitor, full curve] | – |
| c1ccc(-c2nc3ccccc3nc2-c2ccccn2)nc1 | inconclusive: 89.1 µM [inhibitor, single point] | – |
| O=C(Nc1ccc(N2CCOCC2)cc1)c1ccc(-c2ccccc2[N+](=O)[O-])o1 | inconclusive: 25.1 µM [inhibitor, full curve] | – |
| Cc1cnc(NC(=O)NCC2CCCC(CNC(=O)Nc3ncc(C)s3)C2)s1 (stereo unspecified) | active: 31.6 µM | – |
| O=c1oc2ccccc2c(N2CCCCC2)c1CN1CCCC1 | – | inactive: 6.27% |
| CCOC(=O)CCNC(C)C1COc2ccccc2O1 (stereo unspecified) | – | inactive: -99.9% |
| Cc1c(C(=O)O)cccc1-n1c(C)cc(C=O)c1C | inconclusive: 79.4 µM [inhibitor, single point] | – |
| CC(C)[C@H](NC(=O)OCc1ccccc1)C(=O)OCC(=O)NC1(C#N)CCCC1 | inconclusive: 89.1 µM [inhibitor, single point] | – |
| O=S(=O)(Nc1ccccc1Cl)c1cccc2nsnc12 | inconclusive: 22.4 µM [inhibitor, full curve] | – |
| Cc1cccc(OCCCOc2cccc3cccnc23)c1C | inconclusive: 89.1 µM [inhibitor, single point] | – |
| O=C(O)Cc1sc(-c2ccc(C(=O)O)cc2)nc1-c1ccccc1 | inconclusive: 89.1 µM [inhibitor, single point] | – |
| CCN(CC)Cc1c(C(=O)N/N=C/c2ccc(OCc3ccccc3C)cc2)nnn1-c1nonc1N | inconclusive: 63.1 µM [inhibitor, partial curve] | – |

| SMILES | Potency | activity change, negative = inhibition |
| --- | --- | --- |
| CC1CCc2[nH]c3ccc(C(=O)N(C)CC(=O)Nc4ccccc4Br)cc3c2C1 (stereo unspecified) | inconclusive: 31.6 µM [inhibitor, full curve] | – |
| CCOC(=O)c1[nH]c(C)c(CCC(=O)Nc2ccccc2C(=O)OC)c1C | – | inactive: 2.7% |
| Cc1ccc(Cl)cc1N1CCN(c2cccc[n+]2C)CC1 | inconclusive: 100 µM [inhibitor, single point] | – |
| CC(=O)Nc1ccc(NC(=O)C2CCN(S(=O)(=O)c3ccc4c(c3)CCCC(=O)N4)CC2)cc1 | – | inactive: 7.58% [at 57.1 µM] |
| CCOc1ccc(CNC(=O)c2ccc3[nH]c(C)c(C)c3c2)cc1OC | inconclusive: 50.1 µM [inhibitor, partial curve] | – |
| CCOc1ccc(/C=C2/SC(=O)NC2=S)cc1 | inconclusive: 11.2 µM [inhibitor, full curve] | – |
| COC(=O)Cc1ccc2sc(-c3ccccc3)nc2c1 | – | inactive: 74.6% |
| O=C(COC(=O)C1CCN(c2ccc(C(F)(F)F)cn2)CC1)Nc1ccc(F)cc1[N+](=O)[O-] | inconclusive: 28.2 µM [inhibitor, full curve] | – |
| COc1ccc(OC)c(Nc2nc(N(C)c3ccccc3)nc(N)c2[N+](=O)[O-])c1 | inconclusive: 8.91 µM [inhibitor, full curve] | – |
| C=CCN1C(=O)/C(=C\c2ccc(Oc3nc(N4CCOCC4)nc(N4CCOCC4)n3)c(OC)c2)SC1=S | inconclusive: 3.16 µM [inhibitor, partial curve, poor fit] | – |
| Clc1ccc(SCCCCn2ccnc2)cc1 | active: 50.1 µM | – |
| CSc1nc(C(=O)N2CCCC(N3CCN(c4ccccc4C)CC3)C2)cs1 (stereo unspecified) | – | inactive: -28.7% |
| O=C(Nc1ccc2c(c1)OCCO2)C1CCCN(S(=O)(=O)Cc2ccccc2)C1 (stereo unspecified) | inconclusive: 89.1 µM [inhibitor, single point] | – |
| C#CCOCCOCCOCCNc1nc(N2CCN(C(=O)[C@H](CCC(=O)O)n3cc(C(N)Cc4ccc(O)cc4)nn3)CC2)nc(N2CCN(C(=O)[C@H](CCC(=O)O)n3cc(C(N)Cc4ccc(O)cc4)nn3)CC2)n1 (stereo partly specified) | active: 50.1 µM | – |
| CCSc1ncc(Cl)c(C(=O)Nc2nc3ccc(Cl)cc3s2)n1 | – | inactive: 3.27% |
| CC(C)(C)OC(=O)CNC(=O)c1[nH]cnc1C(=O)NC1CCN(C(=O)OC(C)(C)C)CC1 | inconclusive: 89.1 µM [inhibitor, single point] | – |
| COc1cc(S(=O)(=O)NCCCn2ccnc2)ccc1F | inconclusive: 25.1 µM [inhibitor, full curve, poor fit] | – |
| CN(C)c1ccc(CNC(=O)CN2C(=O)CSc3ccc(S(=O)(=O)N4CCCC4)cc32)cc1 | inconclusive: 56.2 µM [inhibitor, partial curve, poor fit] | – |
| NS(=O)(=O)c1cccc(NC(=O)COC(=O)/C(=C/c2cccs2)c2cccs2)c1 | inconclusive: 70.8 µM [inhibitor, single point] | – |
| N#Cc1c(N2CCN(c3ccc(F)cc3)CC2)nc(N)c2c(N)nc3c(c12)CC(=O)N3C1CC1 | inconclusive: 39.8 µM [inhibitor, partial curve] | – |

— PubChem BioAssay AID504333 (National Center for Advancing Translational Sciences (NCATS), 2011)
